We go through 18 compounds from PubChem BioAssay AID248 (DTP/NCI, 2004).

In this assay the test system is L1210 leukemia ip in BDF1 mice, survival T/C. The assay can be described thus: NCI In Vivo Anticancer Drug Screen. Data for tumor model L1210 Leukemia (intraperitoneal) in B6D2F1 (BDF1) mice. The following applies: endpoint: mean survival time, higher = longer survival.
Setting [1] is: dose: 20.0 mg/kg/injection, schedule: Q01DX Z (ip), vehicle: carboxymethylcellulose (CMC).

Structures are written as SMILES. Toxic doses and inconclusive results are not listed. The source holds more than one record for some entries. The other results are left out here. An entry can have further records. The values listed for one entry are repeated measurements in other runs, samples, wells, individuals or studies.

Regarding `O=NN(CCCl)C(=O)Nc1ccc(CCCl)cc1`, the T/C (dose: 75.0 mg/kg/injection, schedule: Q01DX001 (ip), vehicle: carboxymethylcellulose (CMC)) is 101 % of control and 319 % of control.
In the case of `Nc1nc(SN=Nc2ccc([As](=O)(O)O)cc2)c2[nH]cnc2n1`, where the note is “dose: 3.0 mg/kg/injection, schedule: Q01DX Z (ip), vehicle: other”, the T/C is 122 % of control and 154 % of control.
With `N#CCN(CC#N)CCCN(CC#N)CC#N`, where the note is “dose: 100.0 mg/kg/injection, schedule: Q01DX001 (ip), vehicle: saline with Tween-80”, the T/C was 94 % of control and 164 % of control.
Take `OCC1OC(n2nnc3c(=S)nc[nH]c32)C(O)C1O` (stereo not drawn): under “dose: 50.0 mg/kg/injection, schedule: Q01DX001 (ip), vehicle: saline”, the T/C is given as 94 % of control, 101 % of control, 166 % of control.
In the case of `O=C1OC(=O)C2C3OC(C(Br)C3Br)C12` (stereo not drawn), the T/C (dose: 25.0 mg/kg/injection, schedule: Q04DX003 (ip), vehicle: saline) was 103 % of control and 162 % of control.
Regarding `N[C@H](C(=O)O)[C@@H]1CC(Cl)=NO1`, the T/C (dose: 3.12 mg/kg/injection, schedule: Q01DX009 (oral), vehicle: saline) was 121 % of control and 154 % of control; the T/C (dose: 8.0 mg/kg/injection, schedule: Q01DX009 (ip), vehicle: saline) was 111 % of control and 150 % of control; the T/C (dose: 100.0 mg/kg/injection, schedule: Q04DX003 (ip), vehicle: saline) was 121 % of control and 179 % of control.
Take `O=c1[nH]nc(Br)c(=O)n1C(c1ccccc1)c1ccccc1`: under “dose: 100.0 mg/kg/injection, schedule: Q01DX001 (ip), vehicle: carboxymethylcellulose (CMC)”, the T/C is listed as 92 % of control, 94 % of control, 156 % of control.
As for `NC1=NC(=S)C2N=C(N=Nc3ccc(C(=O)NC(CCC(=O)O)C(=O)O)cc3)N=C2N1` (stereo not drawn), the T/C (dose: 6.25 mg/kg/injection, schedule: Q01DX009 (ip), vehicle: Klucel (hydroxypropylcellulose) (HPC)) is 109 % of control and 158 % of control.
Take `CS(=O)(=O)CCN(N=O)C(=N)N[N+](=O)[O-]`: the T/C (dose: 45.0 mg/kg/injection, schedule: Q01DX Z (ip), vehicle: methylcellulose (MC)) was 122 % of control and 153 % of control.
Turning to `NC(Cc1ccc(N(CCCl)CCCl)cc1)C(=O)O` (stereo not drawn), the T/C (dose: 10.0 mg/kg/injection, schedule: Q01DX Z (ip), vehicle: carboxymethylcellulose (CMC)) was 117 % of control and 154 % of control.
With `O=[N+]([O-])c1cccc(N=Nc2ccc(O)cc2)c1`, for the setting “dose: 200.0 mg/kg/injection, schedule: Q01DX009 (ip), vehicle: Klucel (hydroxypropylcellulose) (HPC)”, the T/C was 88 % of control and 175 % of control.
In the case of `Nc1ncnc2c1ncn2C(C=O)OC(C=O)CO` (stereo not drawn), the T/C under setting [1] was 119 % of control and 172 % of control.
As for `CCN(CC)CCNc1ccc(C)c2sc3ccccc3c(=O)c12` (tested in a mixture with another compound), the T/C (dose: 133.0 mg/kg/injection, schedule: Q01DX015 (ip), vehicle: saline) is 114 % of control and 186 % of control.
For `CN=C(NN(C)C)c1ccc(NC(=O)c2ccc(C(=O)Nc3ccc(C(=NC)NN(C)C)cc3)cc2)cc1`, the T/C under setting [1] was 123 % of control and 196 % of control.
Consider `CCCCCCOC(=O)C(N)Cc1ccc(O)c(N(CCCl)CCCl)c1` (stereo not drawn), for which the T/C was 120 % of control and 157 % of control (dose: 0.25 mg/kg/injection, schedule: Q01DX001 (ip), vehicle: saline); 116 % of control and 196 % of control (dose: 2.2 mg/kg/injection, schedule: Q01DX009 (ip), vehicle: saline).
In the case of `C=C(COc1ccc(Cl)cc1)COc1ccc(Cl)cc1`, for the setting “dose: 400.0 mg/kg/injection, schedule: Q04DX002 (ip), vehicle: other”, the T/C is 89 % of control, 90 % of control, 181 % of control.
Turning to `Nc1nccs1`, the T/C (dose: 6.0 mg/kg/injection, schedule: Q04DX002 (ip), vehicle: saline with Tween-80) was 97 % of control and 189 % of control.
Turning to `CC1CN1CC(O)C(O)CN1CC1C` (stereo not drawn), the T/C is 121 % of control and 154 % of control (dose: 0.6 mg/kg/injection, schedule: Q01DX009 (ip), vehicle: saline); 105 % of control and 180 % of control (dose: 5.0 mg/kg/injection, schedule: Q04DX003 (ip), vehicle: saline); 102 % of control and 165 % of control (dose: 6.0 mg/kg/injection, schedule: Q01DX001 (ip), vehicle: saline).
